Experimental data reported in the supplement of paper PMC12217912.
The other results are listed elsewhere or left out. The full chains were built here from the parent and the listed change. Values near 0.05 are background.

B1: TEV protease; numbered along this chain (parent)
chain: MGESLFKGPRDYNPISSSICHLTNESDGHTTSLYGIGFGPFIITNKHLFRRNNGTLVVQSLHGVFKVKDTTTLQQHLVDGRDMIIIRMPKDFPPFPQKLKFREPQREERICLVTTNFQTKSMSSMVSDTSCTFPSGDGIFWKHWIQTKDGQCGSPLVSTRDGFIVGIHSASNFTNTNNYFTSVPKNFMELLTNQEAQQWVSGWRLNADSVLWGGHKVFMVKPEEPFQPVKEATQL

Variants of: B1
Assay: raw area under fraction-flipped curve 0-4 h after induction (AUC4h, not background-subtracted), DNA-recorder readout of cleavage of the substrate (dimensionless); higher = more cleavage of the substrate by the protease variant
Details: temperature: 34 °C; time window: 0-4 h after rhamnose induction
Method: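 In vivo DNA recorder in E. coli TOP10(DE3) ΔrhaA at 34 °C. Each TEVp single-site mutant (parent TEVp 0) is paired with a single-site variant of the 7-mer TEVs (canonical ENLYFQ|S). The substrate sits between flexible linkers in a Bxb1-sfGFP-TEVs-SsrA fusion, so cleavage stabilises Bxb1 and speeds flipping of a recombination array, read by NGS. The value is the raw area under the fraction-flipped curve over 0-4 h after rhamnose induction (AUC4h), with ≥20 reads per time point. It is not background-subtracted; inactive controls average about 0.047.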
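Also: Bxb1 expression induced with 0.2% (w/v) L-rhamnose at OD600 near 0.5, cultures sampled hourly, flipped fraction per protease–substrate barcode pair counted by paired-end Illumina sequencing.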

| Variant | area with substrate ECLYFQS | area with substrate EELYFQS | area with substrate EFLYFQS | area with substrate EGLYFQS | area with substrate EILYFQS | area with substrate EKLYFQS | area with substrate ELLYFQS | area with substrate ERLYFQS | area with substrate ESLYFQS | area with substrate ETLYFQS |
| --- | --- | --- | --- | --- | --- | --- | --- | --- | --- | --- |
| K120E | 0.0801 | 0.106 | 0.0751 | 0.101 | 0.119 | 0.103 | 0.0755 | 0.108 | 0.0981 | 0.114 |
| K120T |  |  |  | 0.0995 |  |  |  | 0.0608 | 0.0851 |  |
| G138H | 0.0884 |  |  | 0.0673 |  | 0.124 |  |  | 0.0688 |  |
| T55Q |  |  |  |  | 0.105 | 0.107 | 0.0852 | 0.1 | 0.111 | 0.14 |
| L235H | 0.0993 | 0.15 |  |  | 0.0974 |  | 0.111 |  | 0.106 |  |
| K216C | 0.0972 |  |  |  |  |  |  | 0.117 |  |  |
| K216P | 0.0785 |  |  |  |  |  |  |  |  |  |
| K216A | 0.0971 | 0.0924 |  |  | 0.094 | 0.11 |  |  |  |  |
| K216N | 0.107 |  | 0.0986 |  | 0.0863 | 0.116 | 0.0805 | 0.0933 |  |  |
| F163H | 0.112 | 0.0955 |  |  |  |  |  | 0.124 | 0.133 |  |
| A232Y | 0.125 | 0.118 | 0.118 | 0.0938 | 0.0948 | 0.103 | 0.088 | 0.0762 | 0.121 | 0.138 |
| H215V | 0.0848 |  |  |  |  |  |  | 0.069 | 0.0863 | 0.071 |
| V165N | 0.0576 |  |  |  |  |  | 0.0782 | 0.0357 |  |  |
| A207C | 0.119 | 0.131 | 0.0911 | 0.101 |  |  |  |  | 0.104 | 0.154 |
| A207I | 0.0802 |  |  |  | 0.102 | 0.108 |  |  | 0.0569 |  |
| M219F | 0.129 | 0.122 | 0.141 | 0.116 |  | 0.0964 | 0.094 | 0.118 | 0.116 | 0.112 |
| L77P |  | 0.0954 |  |  | 0.0925 |  | 0.0959 | 0.0669 | 0.098 |  |
| L205V |  |  |  | 0.0824 |  |  |  |  |  |  |
| Q74S |  | 0.0695 | 0.0968 |  | 0.0673 | 0.0887 |  | 0.122 | 0.11 | 0.121 |

| Variant | area with substrate ECLYFQS | area with substrate EELYFQS | area with substrate EFLYFQS | area with substrate EGLYFQS | area with substrate EILYFQS | area with substrate EKLYFQS | area with substrate ELLYFQS | area with substrate ERLYFQS | area with substrate ESLYFQS | area with substrate ETLYFQS |
| --- | --- | --- | --- | --- | --- | --- | --- | --- | --- | --- |
| R106P | 0.0901 | 0.0828 |  | 0.111 | 0.0993 | 0.114 | 0.103 |  | 0.12 | 0.113 |
| S209I | 0.119 |  |  |  |  |  |  |  |  |  |
| S209P | 0.078 |  |  | 0.0668 | 0.0674 | 0.0639 | 0.0813 | 0.0791 | 0.0849 | 0.0851 |
| F101N |  |  |  | 0.0609 |  |  |  | 0.0469 | 0.0437 |  |
| V64H |  |  |  |  |  |  |  |  | 0.131 |  |
| W141H | 0.0781 |  |  |  |  | 0.079 |  | 0.0689 | 0.0754 |  |
| G202K |  |  |  |  | 0.0975 |  |  | 0.0794 | 0.0872 | 0.084 |
| S130R |  | 0.124 |  | 0.0827 | 0.064 | 0.0893 | 0.0693 | 0.0864 | 0.071 |  |
| P184E | 0.065 |  | 0.0967 | 0.078 | 0.067 |  |  | 0.0744 | 0.0717 |  |
| P184Y | 0.0651 |  | 0.0614 | 0.058 | 0.0544 | 0.0532 |  |  | 0.0714 |  |
| H168V |  |  |  | 0.0623 | 0.0637 |  | 0.0641 |  | 0.057 | 0.0604 |
| H168S | 0.0556 |  |  | 0.0643 | 0.0635 | 0.0678 |  |  | 0.0765 |  |
| H168R | 0.0509 | 0.0469 | 0.0601 |  | 0.0408 | 0.0631 |  | 0.0566 | 0.0632 | 0.0573 |
| E189K | 0.123 | 0.0996 |  |  |  |  |  |  | 0.101 | 0.0921 |
| R160C | 0.0977 | 0.134 |  |  | 0.094 | 0.103 | 0.0874 | 0.124 | 0.102 | 0.111 |
| R160G | 0.117 | 0.122 |  | 0.112 | 0.0983 | 0.132 |  | 0.106 | 0.0866 | 0.0943 |
| R160T | 0.127 | 0.139 | 0.115 |  |  |  |  | 0.173 | 0.193 |  |
| F133G | 0.0802 | 0.0591 | 0.0637 | 0.102 | 0.111 |  |  |  | 0.0865 | 0.0368 |

Same assay, conditions: temperature: 34 °C; time window: 0-4 h after rhamnose induction

| Variant | area with substrate EVLYFQS | area with substrate EDLYFQS | area with substrate EMLYFQS | area with substrate EPLYFQS | area with substrate EQLYFQS | area with substrate EWLYFQS | area with substrate EYLYFQS | area with substrate EHLYFQS |
| --- | --- | --- | --- | --- | --- | --- | --- | --- |
| K120E | 0.0992 |  |  |  |  |  |  |  |
| K120T |  | 0.0979 | 0.0923 |  |  |  |  |  |
| G138H |  | 0.0689 | 0.129 | 0.103 |  |  |  |  |
| T55Q |  | 0.0795 | 0.114 | 0.107 | 0.145 | 0.0852 | 0.1 |  |
| L235H |  |  | 0.109 |  |  |  | 0.0291 |  |
| K216C |  |  |  | 0.0804 |  |  |  | 0.0782 |
| K216P |  | 0.132 |  |  |  |  |  |  |
| K216A |  |  | 0.117 |  |  | 0.0853 |  |  |
| K216N | 0.094 |  | 0.0947 |  | 0.0754 |  |  | 0.109 |
| F163H |  |  | 0.146 | 0.11 | 0.146 |  |  |  |
| A232Y |  |  | 0.114 | 0.0969 | 0.12 |  |  | 0.121 |
| H215V | 0.0704 |  | 0.0956 |  | 0.06 |  |  | 0.0614 |
| V165N |  | 0.0439 |  |  | 0.0588 |  |  | 0.051 |
| A207I | 0.12 |  | 0.0949 |  | 0.0617 |  | 0.0928 |  |
| M219F | 0.123 |  |  |  | 0.134 | 0.116 |  |  |
| L77P |  |  | 0.119 | 0.118 | 0.122 |  | 0.0942 | 0.119 |
| L205V |  | 0.103 |  |  |  | 0.0489 |  |  |
| Q74S | 0.0829 | 0.133 | 0.0552 |  | 0.124 | 0.0949 |  |  |

| Variant | area with substrate EVLYFQS | area with substrate EDLYFQS | area with substrate EMLYFQS | area with substrate EPLYFQS | area with substrate EQLYFQS | area with substrate EWLYFQS | area with substrate EYLYFQS | area with substrate EHLYFQS |
| --- | --- | --- | --- | --- | --- | --- | --- | --- |
| R106P | 0.0797 | 0.12 |  | 0.134 | 0.108 | 0.0897 |  | 0.0852 |
| S209P | 0.0841 |  |  |  |  | 0.0637 | 0.104 |  |
| I167E | 0.0402 | 0.0426 |  | 0.0602 |  |  | 0.0538 |  |
| F101N | 0.0415 | 0.0455 | 0.029 |  | 0.0474 |  |  |  |
| V64H |  | 0.102 |  |  |  |  |  |  |
| W141H | 0.0746 |  | 0.078 |  | 0.0835 |  |  |  |
| G202K | 0.0653 | 0.0938 |  | 0.0872 |  |  |  | 0.0797 |
| S130R |  | 0.117 | 0.0827 |  |  | 0.0789 |  |  |
| P184E | 0.0686 |  | 0.0881 | 0.0569 | 0.0691 |  |  | 0.0653 |
| P184Y |  |  |  | 0.065 | 0.0532 |  | 0.0732 | 0.0565 |
| H168V | 0.0464 | 0.071 | 0.0561 | 0.0698 | 0.0643 | 0.0586 | 0.0561 | 0.0653 |
| H168S | 0.0532 | 0.0572 | 0.0555 | 0.0589 |  | 0.0527 | 0.0528 |  |
| H168R | 0.0571 | 0.0461 | 0.0617 | 0.0533 |  | 0.0589 | 0.0532 |  |
| E189K | 0.126 |  |  |  | 0.147 |  | 0.123 |  |
| R160C | 0.182 | 0.0837 | 0.175 | 0.12 | 0.115 | 0.0478 |  |  |
| R160G | 0.0993 | 0.114 | 0.117 | 0.122 | 0.118 |  | 0.114 | 0.121 |
| R160T |  | 0.142 |  | 0.101 | 0.109 |  |  |  |
| F133G | 0.111 | 0.121 | 0.0957 | 0.0632 |  | 0.0897 |  | 0.113 |
